From article PMC6919601, “Identification of Plasmodium dipeptidyl aminopeptidase allosteric inhibitors by high throughput screening” (PLoS ONE, 2019)
Screen size: about 110,000 compounds; about 230 (0.21%) showed an effect of 50% or more. This is one part of the list.

target: DPAP1 (Plasmodium falciparum, UniProt Q8IIJ9); experiment: primary screen, percent inhibition; read by cleavage of a fluorogenic dipeptide substrate; higher = more effect of the substance; design: species or system P. falciparum D10 trophozoite lysates; single well
Sequence (Q8IIJ9 whole entry, looked up): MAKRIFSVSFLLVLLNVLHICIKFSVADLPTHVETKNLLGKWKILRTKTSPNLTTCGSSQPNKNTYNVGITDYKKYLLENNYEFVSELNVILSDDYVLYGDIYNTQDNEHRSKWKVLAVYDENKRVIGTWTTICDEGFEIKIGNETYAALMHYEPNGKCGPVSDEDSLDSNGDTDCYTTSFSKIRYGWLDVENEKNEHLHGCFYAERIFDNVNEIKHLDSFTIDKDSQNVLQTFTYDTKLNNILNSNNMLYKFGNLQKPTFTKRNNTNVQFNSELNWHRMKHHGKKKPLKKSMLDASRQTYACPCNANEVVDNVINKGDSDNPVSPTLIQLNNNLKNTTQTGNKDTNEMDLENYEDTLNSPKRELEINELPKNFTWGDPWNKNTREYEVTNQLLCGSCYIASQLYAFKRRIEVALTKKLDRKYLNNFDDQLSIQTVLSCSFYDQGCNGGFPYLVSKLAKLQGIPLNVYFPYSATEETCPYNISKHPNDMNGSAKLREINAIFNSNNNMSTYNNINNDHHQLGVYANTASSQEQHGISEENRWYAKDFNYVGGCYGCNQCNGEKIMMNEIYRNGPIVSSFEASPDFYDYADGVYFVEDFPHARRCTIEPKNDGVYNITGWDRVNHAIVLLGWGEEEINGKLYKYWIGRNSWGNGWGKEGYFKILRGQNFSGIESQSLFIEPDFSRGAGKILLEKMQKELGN
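Also: 30 min substrate incubation versus DMSO and 10 µM JCP410 controls.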

Question: For CCCC(=O)Nc1ccc(S(=O)(=O)N2CCc3ccccc32)cc1, which “% Inhibition @ 10 uM” value is on record?
Answer: 0.777%

Question: Which “% Inhibition @ 10 uM” value does the source give for O=C(c1ccccc1NC(=O)C(F)(F)F)N(c1ccccc1)c1ccc2ccccc2c1 here?
Answer: 0.605%

Question: How did the “% Inhibition @ 10 uM” value turn out when NC(=O)c1c(NC(=O)c2ccccc2C(=O)O)sc2c1CCCC2 was run?
Answer: 5.92%

Question: For Oc1ccc(Br)cc1-c1nc2ccccc2s1, which “% Inhibition @ 10 uM” value is on record?
Answer: -5.33%

Question: How did the “% Inhibition @ 10 uM” value turn out when COc1ccc(C2C(C(=O)Nc3ccccn3)=C(C)Nc3ncnn32)c(OC)c1 (centres unmarked) was run?
Answer: -6.7%

Question: Which “% Inhibition @ 10 uM” value does the source give for O=C1c2ccccc2C(=O)N1CC1NCCc2ccccc21 (centres unmarked) here?
Answer: -3.63%

Question: With O=C(C/C=C/c1ccccc1)O/N=C1/CCSc2ccccc21 as the compound, how does the “% Inhibition @ 10 uM” value read?
Answer: 11.8%

Question: O=C(O)[C@H]1C2CCCCC2=C2CCCCC2[C@@H]1c1ccccc1 (some centres unmarked) was tested. Which “% Inhibition @ 10 uM” value did it give?
Answer: 1.64%

Question: For CC(NC(=O)Cn1ncc2c3ccccc3nc-2c1O)c1ccccc1 (centres unmarked), which “% Inhibition @ 10 uM” value is on record?
Answer: -2.71%

Question: With Cc1ccc(CS(=O)Cc2ccc(C(=O)NCc3ccc(OC(C)C)cc3)o2)cc1 (centres unmarked) as the compound, how does the “% Inhibition @ 10 uM” value read?
Answer: -0.154%

Question: COc1cccc(NC(=O)NCc2ccccc2Cl)c1 was tested. Which “% Inhibition @ 10 uM” value did it give?
Answer: -5.82%

Question: CCOC(=O)c1sc(NC(=O)c2cc(-c3ccc(C)s3)nc3ccccc23)nc1C was tested. Which “% Inhibition @ 10 uM” value did it give?
Answer: -1.1%

Question: With COC(=O)c1cc(-c2cccc(OC)c2)c2c(=O)[nH]c(=O)n(C)c2n1 as the compound, how does the “% Inhibition @ 10 uM” value read?
Answer: -2.28%

Question: How did the “% Inhibition @ 10 uM” value turn out when Cc1nc2c(c(C)c1CCC(=O)NCC(N)=O)c(=O)n(C)c(=O)n2C was run?
Answer: -3.1%

Question: Which “% Inhibition @ 10 uM” value does the source give for O=C(CNC(=S)N(Cc1ccc(F)cc1)C1CCCCC1)NCCN1CCOCC1 here?
Answer: -0.406%

Question: With Cc1nc2c(c(N)c1C)CCC2 as the compound, how does the “% Inhibition @ 10 uM” value read?
Answer: -3.16%

Question: Which “% Inhibition @ 10 uM” value does the source give for Cc1ccccc1Cc1c(C)nc2nc(SCC(=O)NCCCN3CCCCC3)nn2c1C here?
Answer: 1.5%

Question: Which “% Inhibition @ 10 uM” value does the source give for CCN(CC)C(=O)COc1ccc(C2C(C#N)=C(N)Oc3[nH]nc(C(C)(C)C)c32)cc1OC (centres unmarked) here?
Answer: 1.08%

Question: How did the “% Inhibition @ 10 uM” value turn out when COc1ccccc1Oc1ccc(NC(=O)c2cc3cc(Br)ccc3o2)cn1 was run?
Answer: 1.76%

Question: Which “% Inhibition @ 10 uM” value does the source give for COc1ccc(-c2cc(C(F)(F)F)nc(SCC(=O)NCc3cccs3)n2)cc1 here?
Answer: -4.85%

Question: Which “% Inhibition @ 10 uM” value does the source give for CCOC(=O)c1cc(-c2ccc(F)cc2)n(CC(=O)NCCCN(CC)CC)c1C here?
Answer: -0.176%

Question: For COc1ccc2c(CNCCc3ccccc3OC)c(C(=O)O)n(Cc3ccccc3)c2c1, which “% Inhibition @ 10 uM” value is on record?
Answer: 3.09%

Question: COC(=O)c1ccccc1S(=O)(=O)NC(=O)Nc1nc(-c2cccs2)cc(C(F)(F)F)n1 was tested. Which “% Inhibition @ 10 uM” value did it give?
Answer: -2.72%

Question: Cc1ccccc1C(=O)Nc1sc2c(c1C#N)CCCC2 was tested. Which “% Inhibition @ 10 uM” value did it give?
Answer: -2.8%

Question: O=C(Nc1ccc(Br)c2cccnc12)c1ccco1 was tested. Which “% Inhibition @ 10 uM” value did it give?
Answer: 0.716%

Question: With CCCC(=O)CSc1nc(O)cc(C)c1C#N as the compound, how does the “% Inhibition @ 10 uM” value read?
Answer: 2.76%

Question: COc1ccc(/C=C/C(=O)N2CCN(Cc3ccc4c(c3)OCO4)CC2)cc1 was tested. Which “% Inhibition @ 10 uM” value did it give?
Answer: -2.98%

Question: Which “% Inhibition @ 10 uM” value does the source give for COc1ccc(C2C(C#N)=C(N)N(c3nc[nH]n3)C3=C2C(=O)CCC3)cc1OC (centres unmarked) here?
Answer: -1.98%

Question: With Cc1ccc(S(=O)(=O)N2CCC(C(=O)N3CCC(C(=O)NCc4cccnc4)CC3)CC2)cc1 as the compound, how does the “% Inhibition @ 10 uM” value read?
Answer: -1.34%

Question: With CC12CCC(C(=O)Nc3ccncc3)(c3nc4ccccc4nc31)C2(C)C (centres unmarked) as the compound, how does the “% Inhibition @ 10 uM” value read?
Answer: -5.31%

Question: For CC1(C)Cc2c(sc3[nH]c(=S)n(C4CCCCC4)c(=O)c23)CO1, which “% Inhibition @ 10 uM” value is on record?
Answer: -7.54%

Question: How did the “% Inhibition @ 10 uM” value turn out when N#Cc1ccc(C(=O)Nc2cccc(C(F)(F)F)c2)c(F)c1 was run?
Answer: -1.82%

Question: N#CSc1ccc(N/C=C2/C(=O)NC(=O)N(c3cccc(Cl)c3)C2=O)cc1 was tested. Which “% Inhibition @ 10 uM” value did it give?
Answer: 5.89%

Question: How did the “% Inhibition @ 10 uM” value turn out when O=C(Nc1cccc(-c2nc3ncccc3o2)c1)c1cccc2ccccc12 was run?
Answer: 7.47%

Question: For CCOc1ccc(C2=CC(c3ccccc3F)n3ncnc3N2)cc1Cl (centres unmarked), which “% Inhibition @ 10 uM” value is on record?
Answer: 0.0842%

Question: For CC(C)(C)c1ccc(C(CC(=O)O)NC(=O)c2ccco2)cc1 (centres unmarked), which “% Inhibition @ 10 uM” value is on record?
Answer: 2.57%

Question: Cc1ccc2c(CN3CCN(Cc4ccccc4F)CC3)cc(=O)oc2c1 was tested. Which “% Inhibition @ 10 uM” value did it give?
Answer: 0.635%

Question: For CN1CCN(CCCNC(=O)c2ccc3c(c2)sc2nc(-c4ccccc4)cn23)CC1, which “% Inhibition @ 10 uM” value is on record?
Answer: 11.9%

Question: Which “% Inhibition @ 10 uM” value does the source give for COc1cc(C)c(/C=C2/NC(=O)NC2=O)cc1C(C)C here?
Answer: -2.98%

Question: With Cc1c(C(=O)N(C)CCC#N)oc2ccc(S(=O)(=O)N3CCOCC3)cc12 as the compound, how does the “% Inhibition @ 10 uM” value read?
Answer: 0.387%

Question: CCOC(=O)N1CCC(NCc2ccccc2Cl)CC1 was tested. Which “% Inhibition @ 10 uM” value did it give?
Answer: 5.03%

Question: How did the “% Inhibition @ 10 uM” value turn out when CN1CCN(S(=O)(=O)c2cnccc2N2CCN(c3cccc(Cl)c3)CC2)CC1 was run?
Answer: 0.83%

Question: With Cc1nn(C(C)C(=O)N2CCOCC2)c(=O)c2nn(-c3ccccc3)c(C)c12 (centres unmarked) as the compound, how does the “% Inhibition @ 10 uM” value read?
Answer: -2.49%

Question: With Cc1ccc(CSc2nc3ccc(C(=O)N4CCCC4)cc3n2C)cc1 as the compound, how does the “% Inhibition @ 10 uM” value read?
Answer: -2.31%

Question: How did the “% Inhibition @ 10 uM” value turn out when O=C(Nc1cnc(O)nc1O)c1ccccc1 was run?
Answer: 1.27%

Question: Cc1ccccc1S(=O)Cc1ccc(C(=O)NC2CCN(Cc3ccccc3)CC2)o1 (centres unmarked) was tested. Which “% Inhibition @ 10 uM” value did it give?
Answer: 4.9%

Question: Which “% Inhibition @ 10 uM” value does the source give for CCOc1ccc(NC(=O)C2=C(C)NC(=O)NC2c2ccc(O)cc2)cc1 (centres unmarked) here?
Answer: -3.5%

Question: How did the “% Inhibition @ 10 uM” value turn out when NS(=O)(=O)c1ccc(CCNC(=O)c2cc(=O)c3cc(Cl)ccc3o2)cc1 was run?
Answer: 1.7%

Question: With O=C(c1ccc(Br)cc1)N(Cc1ccccc1)c1ccccn1 as the compound, how does the “% Inhibition @ 10 uM” value read?
Answer: 0.366%

Question: With COc1ccc(CCNC(=O)CNS(=O)(=O)c2cccs2)cc1OC as the compound, how does the “% Inhibition @ 10 uM” value read?
Answer: -2.12%

Question: Which “% Inhibition @ 10 uM” value does the source give for COc1ccc(C(=O)Nc2ccc(S(=O)(=O)Nc3cc(C)nc(C)n3)cc2)cc1OC here?
Answer: 1.05%

Question: How did the “% Inhibition @ 10 uM” value turn out when CCCCCn1c(CN2CCc3ccccc3C2)nc2c1c(=O)n(C)c(=O)n2C was run?
Answer: 0.317%

Question: For CCCCN(Cc1ccco1)C(=O)Cn1ncc2c1-c1cc(C)ccc1OC2, which “% Inhibition @ 10 uM” value is on record?
Answer: 1.47%

Question: For Cc1oc(-c2ccc(Cl)cc2)nc1CN1CCC(C(=O)NCCN(C)CCc2ccccc2)CC1, which “% Inhibition @ 10 uM” value is on record?
Answer: 8.55%

Question: Which “% Inhibition @ 10 uM” value does the source give for CCOc1cc(C(=O)N2CC(C)OC(C)C2)cc(OCC)c1OCC (centres unmarked) here?
Answer: 3.04%

Question: With COc1ccc(C)cc1NC(=O)c1ccc(Cl)cc1Cl as the compound, how does the “% Inhibition @ 10 uM” value read?
Answer: 5.73%

Question: For CC(C)CNS(=O)(=O)c1ccc(CCC(=O)NC2CC2)cc1, which “% Inhibition @ 10 uM” value is on record?
Answer: -2.28%

Question: CC1=C(C(=O)Nc2ccccc2)C(c2cccs2)n2c(s/c(=C/c3cn(C)nc3C)c2=O)=N1 (centres unmarked) was tested. Which “% Inhibition @ 10 uM” value did it give?
Answer: -3.04%

Question: With COc1ccc(CNc2nc(-c3ccco3)nn2C(=O)c2ccco2)cc1 as the compound, how does the “% Inhibition @ 10 uM” value read?
Answer: -5.08%

Question: How did the “% Inhibition @ 10 uM” value turn out when CCOc1ccc(N2C(=O)/C(=C/c3ccc(C)o3)C(=O)NC2=S)cc1 was run?
Answer: 7.31%

Question: How did the “% Inhibition @ 10 uM” value turn out when O=S1(=O)CCC(NC(=S)SCc2ccccc2)C1 (centres unmarked) was run?
Answer: 4.88%

Question: For Cn1c(=O)[nH]c(=O)c2c1nc(NCCc1ccccc1)n2Cc1ccccc1Cl, which “% Inhibition @ 10 uM” value is on record?
Answer: 3.66%
